Results published in PubChem BioAssay AID651820 (National Center for Advancing Translational Sciences (NCATS), 2012).
About 12,000 (3.5%) of roughly 340,000 compounds were called active. The inconclusive results got no clear call from the source; some entries with a clear call stand among them for comparison. Calls follow the shape of the dose curve; as a rule, active = well fitted inhibition curve with a large enough effect; inconclusive = small, poorly fitted or top-dose-only effect, or another doubt; inactive = no such curve, though single readings can be large or run the other way. No potency is given beside an inconclusive call; the fits are too rough.

Experiment: qHTS Assay for Inhibitors of Hepatitis C Virus (HCV)
Conditions: Huh7.5.1 HCVcc-Cre (HCVcc is cell-culture hepatitis C virus) infection, luciferase reporter, 44 h; activity change, negative = inhibition: at 41.8 µM (top of the series) unless noted
Summary of the method: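 Antiviral activity was scored by luciferase reporter output from cells infected with HCVcc-Cre (~0.5 moi) in presence of compound, 44 h infection period, cells seeded 1,000/well 4 h prior.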
% is scaled to controls: 0 for no effect and ±100 for the full control effect; potency is read from the fitted curve at half-maximal effect; tags tell the direction and shape of the fitted curve.

SMILES | Potency | activity change, negative = inhibition
CC(=O)n1cc([C@@H]2C=C(C(=O)Nc3ccccc3)O[C@H](OCCCCO)C2)c2ccccc21 | inconclusive [inhibitor, single point] | 
CCOc1ccc(OCC)c(NC(=O)CN2CCN(c3cccc(C)c3)CC2)c1 | inconclusive [inhibitor, full curve, poor fit] | 
O=C(O)c1cc2nccc(-c3ccco3)n2n1 |  | inactive: 7.31%
Cc1ccc(NC2CCCN(C(=O)c3ccccn3)C2)cc1C (centres undefined) |  | inactive: -2.17%
S=C(NCc1ccccc1)NCc1cccc(CNC(=S)NCc2ccccc2)c1 | inconclusive [inhibitor, full curve, poor fit] | 
CCN(C(=O)COC(=O)c1c(NC(C)=O)sc(C)c1C)c1c(N)n(Cc2ccccc2)c(=O)[nH]c1=O | inconclusive [inhibitor, full curve, poor fit] | 
Cc1cccn2c(=O)c3cc(C(=O)NC4CCCC4)sc3nc12 | inconclusive [inhibitor, single point] | 
COc1ccc(-c2nc(C#N)c(N3CCc4ccccc4C3)o2)cc1OC | active: 11.2 µM | 
Cc1cc(=O)[nH]c(N/N=C/c2ccccn2)n1 | active: 1 µM | 
COc1ccc(C(=O)NC(=S)NNC(=O)Cc2cccs2)cc1 | inconclusive [inhibitor, full curve, poor fit] | 
COC(=O)/C=C/c1sc2nc(C)cc(C)c2c1N=CN(C)C |  | inactive: -13.4%
O=C(Nc1ncc2c(n1)CC(c1cccc(Cl)c1)CC2=O)c1ccco1 (centres undefined) | inconclusive [inhibitor, single point] | 
CCc1nc(SCC(=O)NC2CCCC2)c2c(=O)n(C)c(=O)n(C)c2n1 |  | inactive: -8.66%
CCn1c(N)cc(=O)[nH]c1=S |  | inactive: 7.99%
COc1ccc2ccccc2c1/C=N/NC(=O)c1sc(N)c(C#N)c1C | inconclusive [inhibitor, partial curve] | 
CCN(CC)CCCNc1oc(-c2ccc(OC)c(OC)c2)nc1C#N | inconclusive [inhibitor, single point] | 
CC(c1ccccc1F)n1cc(C(=O)NCCc2ccco2)nn1 (centres undefined) | inconclusive [inhibitor, single point] | 
O=C(Nc1cccc2ccccc12)ON=C1CCCCC1 | inconclusive [inhibitor, single point] | 
COc1ccc(CCC(=O)NCC(c2ccco2)N2CCc3ccccc32)cc1 (centres undefined) | inconclusive [inhibitor, single point] | 
CCN1C(=O)[C@H]2[C@@H](c3ccc(-c4ccc(F)cc4)cc3)N3CCCC[C@@]3(C(=O)OC)[C@H]2C1=O | inconclusive [inhibitor, single point] | 
CCOC(=O)c1c(-c2ccc(C)o2)csc1NC(=O)CSc1nncs1 | inconclusive [inhibitor, partial curve, poor fit] | 
CCN(CC(=O)Nc1c(C(=O)OC)[nH]c2ccc(C)cc12)c1ccc2c(c1)OCO2 | active: 8.91 µM | 
CC(C)(C)c1ccc(CN(Cc2ccco2)Cc2nnnn2C2CCCC2)cc1 | inconclusive [inhibitor, single point] | 
CC1(C)CC(=O)c2cc(OCC(=O)NCCCN3CCN(c4ccc(F)cc4)CC3)ccc2O1 | active: 10 µM | 
CCSc1nc2ccc(OC)cc2cc1C#N | active: 10 µM | 

SMILES | Potency | activity change, negative = inhibition
CCN(CC)CCOCCOC(=O)C(CC)(CC)c1ccccc1 |  | inactive: -8.98%
CCCC(=O)NNC(=O)CCC(=O)NCc1ccccc1 |  | inactive: -4.42%
ON(CCc1ccncc1)Cc1ccccc1 |  | inactive: 0.535%
COc1ccc(-c2csc(Nc3ccc(O)cc3)n2)cc1 | active: 12.6 µM | 
O=C(CN1C(=O)NC2(CCCCC2)C1=O)NCc1ccc2c(c1)OCO2 |  | inactive: -28.4%
CCOC(=O)c1c(NC(=O)c2ccoc2C)sc2c1CCC2 | inconclusive [inhibitor, full curve] | 
O=C(/C=C/c1cccc(C(F)(F)F)c1)Nc1cccc(C(F)(F)F)c1 | inconclusive [inhibitor, partial curve] | 
COCc1cc(C)nc2sc(C(=O)Nc3ccccc3OC)c(N)c12 | inconclusive [inhibitor, partial curve] | 
O=[N+]([O-])c1ccc(S(=O)(=O)N2CCN(Cc3c[nH]c4ccccc34)CC2)cc1 | active: 22.4 µM | 
O=C1NC(=O)N(Cc2ccc(F)cc2)C(=O)/C1=C\C=C\c1ccco1 | inconclusive [inhibitor, single point] | 
CC(C)c1nc2ccccc2n1CC(O)COC1CCCCC1 (centres undefined) | inconclusive [inhibitor, single point] | 
CCCC(=O)N1CCN(S(=O)(=O)c2cc(Cl)ccc2OC)CC1 |  | inactive: -13.8%
Cn1c(-c2ccc3c(c2)OCO3)cnc1NCc1cccc(Cl)c1 |  | inactive: -17.9%
O=C(Nc1ccccc1F)Nc1ccc([N+](=O)[O-])cc1Cl | inconclusive [inhibitor, single point] | 
NS(=O)(=O)c1ccc(NC(=O)/C=C/c2cccs2)cc1 |  | inactive: 13%
CC(C)N1CCN(S(=O)(=O)c2ccccc2)c2ccccc21 | inconclusive [inhibitor, single point] | 
COc1ccccc1-n1cnc2sc(-c3ccccc3)cc2c1=O | inconclusive [inhibitor, single point] | 
COCc1nnc(NC(=O)CCS(=O)(=O)c2ccccc2)s1 | inconclusive [inhibitor, single point] | 
COc1cc2c(-c3ccc4c(c3)OCO4)c(-c3ccsc3)oc(=O)c2cc1OC |  | inactive: -6.43% [at 8.37 µM]
NC(=O)c1cc([N+](=O)[O-])ccc1N1CCCCC1 |  | inactive: 4.7%
CCOC(=O)N1CCN(C(=O)c2cc(COc3ccc(OC)cc3Cl)on2)CC1 |  | inactive: -29.8%
Clc1cccc(-c2nc(NCCN3CCOCC3)c3ccccc3n2)c1 | inconclusive [inhibitor, full curve] | 
COc1cccc(Nc2nc(-c3ccccc3O)nc3ccccc23)c1 | inconclusive [inhibitor, partial curve] | 
Cc1ccc(-n2c(SCc3ccc(C#N)cc3)nnc2-c2ccccn2)cc1 |  | inactive: -6.16%
Cc1sc2nc(CN3CCOCC3)[nH]c(=O)c2c1-c1ccccc1 |  | inactive: 4.96%

SMILES | Potency | activity change, negative = inhibition
Cc1ccccc1Nc1nn2c(=O)c3ccccc3nc2s1 |  | inactive: -9.26%
O=C(CNC(=O)c1ccccc1Cl)Nc1ccc(F)cc1 | inconclusive [inhibitor, full curve, poor fit] | 
COc1ccccc1Nc1nc2nonc2nc1N1CCCCC1C (centres undefined) | inconclusive [inhibitor, full curve] | 
COc1cc(OC)cc(-c2cc3nc(C)c(CCC(=O)NCc4ccccc4)c(C)n3n2)c1 | inconclusive [inhibitor, full curve] | 
CCOC(=O)CC(=O)CSc1nc2sc(C)cc2c(=O)n1Cc1ccco1 | inconclusive [inhibitor, full curve] | 
CCC(C)Sc1cccc(-c2nc3cc(C)ccn3c2NC2CCCCC2)c1 (centres undefined) | inconclusive [inhibitor, single point] | 
CCCCOP(=O)(c1ccc(N(C)C)cc1)C(O)c1ccc(N(C)C)cc1 (centres undefined) |  | inactive: 2.98%
COc1ccccc1CN(C)CC(=O)Nc1cccc(S(=O)(=O)N2CCCCC2)c1 | inconclusive [inhibitor, partial curve] | 
Clc1ccc(CSc2nnc(-c3ccncc3)s2)cc1 |  | inactive: -5.98%
Cc1csc(NC(=O)C2CCN(S(=O)(=O)c3ccccc3)CC2)n1 | inconclusive [inhibitor, partial curve] | 
CC(=O)N1N=C(c2ccco2)CC1c1ccc(Cl)o1 (centres undefined) |  | inactive: 6.65%
c1ccc(-c2ccnc3nc(N4CCN(c5ccccc5)CC4)nn23)cc1 | inconclusive [inhibitor, single point] | 
COc1cc(/C=C/C(=O)OC(C)C(=O)Nc2ccc(Cl)cn2)ccc1OC(F)F (centres undefined) | inconclusive [inhibitor, single point] | 
CCN1CCN(Cc2ccc(NC(=O)c3cc(NC(=O)c4cc(-c5ccc(OC)cc5)n[nH]4)cc(OC)c3)cc2C(F)(F)F)CC1 | inconclusive [inhibitor, full curve] | 
CCCn1c(C(C)Nc2nc(-c3cccc(Br)c3)cs2)nc2ccccc21 (centres undefined) | inconclusive [inhibitor, single point] | 
CCSc1nc(NCCN(C)C)c2c3c(sc2n1)COC(C)(CC)C3 (centres undefined) |  | inactive: -21.8%
OC1(c2cccc(C(F)(F)F)c2)CCN(c2ccc(-c3ccccc3)nn2)CC1 | inconclusive [inhibitor, single point] | 
COc1ccc(Nc2nnc(-c3ccc(O)cc3)c3ccccc23)cc1 | inconclusive [inhibitor, single point] | 
Cc1cc(NCCN2CCOCC2)n2nc(C)c(-c3ccc(Cl)cc3)c2n1 | active: 10 µM | 
C/C=C\C(=O)Nc1cccc(C2=NOC3(C2)C[C@@H](C(N)=O)N(C(=O)CC(c2ccccc2)c2ccccc2)C3)c1 (some centres undefined) | inconclusive [inhibitor, single point] | 
OCCC1CN(Cc2c(O)ccc3ccccc23)CCN1CCc1ccccc1 (centres undefined) |  | inactive: -0.738%
CCOC(=O)C1(C)C(C(=O)OC)=C(c2ccc(OC)cc2)c2ccccc2N1C(=O)OC (centres undefined) | inconclusive [inhibitor, partial curve] | 
CCCCNc1c(N)n(CC(C)C)c(=O)[nH]c1=O |  | inactive: 7.03%
Cc1ccc(-c2nc(C#N)c(N3CCC(C)CC3)o2)cc1 | inconclusive [inhibitor, partial curve] | 
